Measurements from the supplement of paper PMC4604168 (melanoma cell lines).
Some of the results follow. Single values are uncertain, as repeats are few or missing.

Test system: RVH-421
Test: cell count relative to DMSO control; melanoma cells; higher = more viable cells
Settings: library dose: low library concentration; 72 h
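Note: cell number obtained by counting DAPI-stained nuclei in high-throughput microscope images with image analysis software, screen run in 1,536-well plates.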

Structure (SMILES)	cell count
O=C(/C=C/c1cccnc1)NCCCCC1CCN(C(=O)c2ccccc2)CC1 + C#Cc1cccc(Nc2ncnc3cc(OCCOC)c(OCCOC)cc23)c1 [erlotinib] (first compound 0.01 µM, partner dose 0.8 µM)	49.5%
CC1(C)CCC(c2ccc(Cl)cc2)=C(CN2CCN(c3ccc(C(=O)NS(=O)(=O)c4ccc(N[C@H](CCN5CCOCC5)CSc5ccccc5)c(S(=O)(=O)C(F)(F)F)c4)cc3)CC2)C1 + Cn1cnc2c(F)c(Nc3ccc(Br)cc3Cl)c(C(=O)NOCCO)cc21 [selumetinib] (first compound 0.4 µM, partner dose 0.015 µM)	69.3%
O=C(/C=C/c1cccnc1)NCCCCC1CCN(C(=O)c2ccccc2)CC1 + Cn1cnc2c(F)c(Nc3ccc(Br)cc3Cl)c(C(=O)NOCCO)cc21 [selumetinib] (first compound 0.01 µM, partner dose 0.015 µM)	59.8%
Cc1ccc(Nc2nccc(N(C)c3ccc4c(C)n(C)nc4c3)n2)cc1S(N)(=O)=O [Pazopanib] + CC(C)CCN1c2nc(Nc3cc(F)c(O)c(F)c3)ncc2N(C)C(=O)C1C [BID1870] (first compound 0.4 µM, partner dose 0.2 µM)	94.3%
CC1(C)CCC(c2ccc(Cl)cc2)=C(CN2CCN(c3ccc(C(=O)NS(=O)(=O)c4ccc(N[C@H](CCN5CCOCC5)CSc5ccccc5)c(S(=O)(=O)C(F)(F)F)c4)cc3)CC2)C1 + COc1ccc2c(c1)CCC1C2CCC2(C)C(NCCCCCCN3C(=O)C=CC3=O)CCC12 [U73122] (first compound 0.4 µM, partner dose 0.4 µM)	68.3%
O=C(/C=C/c1cccnc1)NCCCCC1CCN(C(=O)c2ccccc2)CC1 + Cc1cn(-c2cc(NC(=O)c3ccc(C)c(Nc4nccc(-c5cccnc5)n4)c3)cc(C(F)(F)F)c2)cn1 [nilotinib] (first compound 0.01 µM, partner dose 0.2 µM)	38.6%
Cc1ccc(Nc2nccc(N(C)c3ccc4c(C)n(C)nc4c3)n2)cc1S(N)(=O)=O [Pazopanib] + NC(=O)c1ccc(N(C(N)=O)c2c(F)cccc2F)nc1-c1ccc(F)cc1F [VX702] (first compound 0.4 µM, partner dose 0.4 µM)	89.5%
Cc1ccc(Nc2nccc(N(C)c3ccc4c(C)n(C)nc4c3)n2)cc1S(N)(=O)=O [Pazopanib] + O=C(O)c1ccc(-c2c[nH]c3ncc(-c4ccccc4)cc23)cc1C1CCCC1 [GSK650394] (first compound 0.4 µM, partner dose 0.16 µM)	160%
CC1(C)CCC(c2ccc(Cl)cc2)=C(CN2CCN(c3ccc(C(=O)NS(=O)(=O)c4ccc(N[C@H](CCN5CCOCC5)CSc5ccccc5)c(S(=O)(=O)C(F)(F)F)c4)cc3)CC2)C1 + Nc1nc(F)nc2c1ncn2[C@@H]1O[C@H](CO)[C@@H](O)[C@@H]1O [fludarabine] (first compound 0.4 µM, partner dose 0.2 µM)	73.7%
Cc1ccc(Nc2nccc(N(C)c3ccc4c(C)n(C)nc4c3)n2)cc1S(N)(=O)=O [Pazopanib] + Cc1nc(Nc2ncc(C(=O)Nc3c(C)cccc3Cl)s2)cc(N2CCN(CCO)CC2)n1 [dasatanib] (first compound 0.4 µM, partner dose 0.004 µM)	94.8%
CC1(C)CCC(c2ccc(Cl)cc2)=C(CN2CCN(c3ccc(C(=O)NS(=O)(=O)c4ccc(N[C@H](CCN5CCOCC5)CSc5ccccc5)c(S(=O)(=O)C(F)(F)F)c4)cc3)CC2)C1 + Cn1c(Nc2ccc(C(F)(F)F)cc2)nc2cc(Oc3ccnc(-c4ncc(C(F)(F)F)[nH]4)c3)ccc21 [CHIR265] (first compound 0.4 µM, partner dose 0.08 µM)	10.8%
CC1(C)CCC(c2ccc(Cl)cc2)=C(CN2CCN(c3ccc(C(=O)NS(=O)(=O)c4ccc(N[C@H](CCN5CCOCC5)CSc5ccccc5)c(S(=O)(=O)C(F)(F)F)c4)cc3)CC2)C1 + C=C(c1ccc(C(=O)O)cc1)c1cc2c(cc1C)C(C)(C)CCC2(C)C [Bexarotene] (first compound 0.4 µM, partner dose 2 µM)	58.6%
CC1(C)CCC(c2ccc(Cl)cc2)=C(CN2CCN(c3ccc(C(=O)NS(=O)(=O)c4ccc(N[C@H](CCN5CCOCC5)CSc5ccccc5)c(S(=O)(=O)C(F)(F)F)c4)cc3)CC2)C1 + Cc1cn(-c2cc(NC(=O)c3ccc(C)c(Nc4nccc(-c5cccnc5)n4)c3)cc(C(F)(F)F)c2)cn1 [nilotinib] (first compound 0.4 µM, partner dose 0.2 µM)	78.5%
Cc1ccc(Nc2nccc(N(C)c3ccc4c(C)n(C)nc4c3)n2)cc1S(N)(=O)=O [Pazopanib] + CO[C@H]1C[C@@H]2CC[C@@H](C)[C@@](O)(O2)C(=O)C(=O)N2CCCC[C@H]2C(=O)O[C@H]([C@H](C)C[C@@H]2CC[C@@H](OCCO)[C@H](OC)C2)CC(=O)[C@H](C)/C=C(\C)[C@@H](O)[C@@H](OC)C(=O)[C@H](C)C[C@H](C)/C=C/C=C/C=C/1C [everolimus] (first compound 0.4 µM, partner dose 0.02 µM)	110%
Cc1ccc(Nc2nccc(N(C)c3ccc4c(C)n(C)nc4c3)n2)cc1S(N)(=O)=O [Pazopanib] + Cn1nnc2c(C(N)=O)ncn2c1=O [temozolomide] (first compound 0.4 µM, partner dose 2 µM)	104%
CC1(C)CCC(c2ccc(Cl)cc2)=C(CN2CCN(c3ccc(C(=O)NS(=O)(=O)c4ccc(N[C@H](CCN5CCOCC5)CSc5ccccc5)c(S(=O)(=O)C(F)(F)F)c4)cc3)CC2)C1 + COc1ccc(C2=N[C@@H](c3ccc(Cl)cc3)[C@@H](c3ccc(Cl)cc3)N2C(=O)N2CCNC(=O)C2)c(OC(C)C)c1 [Nutlin-3] (first compound 0.4 µM, partner dose 0.1 µM)	73.6%
Cc1ccc(Nc2nccc(N(C)c3ccc4c(C)n(C)nc4c3)n2)cc1S(N)(=O)=O [Pazopanib] + CNC(=O)c1cc(Oc2ccc(NC(=O)Nc3ccc(Cl)c(C(F)(F)F)c3)cc2)ccn1 [sorafenib] (first compound 0.4 µM, partner dose 0.4 µM)	71.5%
CC1(C)CCC(c2ccc(Cl)cc2)=C(CN2CCN(c3ccc(C(=O)NS(=O)(=O)c4ccc(N[C@H](CCN5CCOCC5)CSc5ccccc5)c(S(=O)(=O)C(F)(F)F)c4)cc3)CC2)C1 + C=CCNC1=C2C[C@@H](C)C[C@H](OC)[C@H](O)[C@@H](C)/C=C(\C)[C@H](OC(N)=O)[C@@H](OC)/C=C\C=C(/C)C(=O)NC(=CC1=O)C2=O [Tanespimycin] (first compound 0.4 µM, partner dose 0.002 µM)	70.9%
O=C(/C=C/c1cccnc1)NCCCCC1CCN(C(=O)c2ccccc2)CC1 + NCC(=O)Nc1ccc(-n2nc(C(F)(F)F)cc2-c2ccc3c(ccc4ccccc43)c2)cc1 [OSU03012] (first compound 0.01 µM, partner dose 1 µM)	61.3%
CC1(C)CCC(c2ccc(Cl)cc2)=C(CN2CCN(c3ccc(C(=O)NS(=O)(=O)c4ccc(N[C@H](CCN5CCOCC5)CSc5ccccc5)c(S(=O)(=O)C(F)(F)F)c4)cc3)CC2)C1 + CCCS(=O)(=O)Nc1ccc(F)c(C(=O)c2c[nH]c3ncc(Cl)cc23)c1F [PLX4720] (first compound 0.4 µM, partner dose 0.08 µM)	65%
CC1(C)CCC(c2ccc(Cl)cc2)=C(CN2CCN(c3ccc(C(=O)NS(=O)(=O)c4ccc(N[C@H](CCN5CCOCC5)CSc5ccccc5)c(S(=O)(=O)C(F)(F)F)c4)cc3)CC2)C1 + Nc1cccc2c1CN(C1CCC(=O)NC1=O)C2=O [lenalidomide] (first compound 0.4 µM, partner dose 1 µM)	73.4%
Cc1ccc(Nc2nccc(N(C)c3ccc4c(C)n(C)nc4c3)n2)cc1S(N)(=O)=O [Pazopanib] + C=CCn1c(=O)c2cnc(Nc3ccc(N4CCN(C)CC4)cc3)nc2n1-c1cccc(C(C)(C)O)n1 [MK1775] (first compound 0.4 µM, partner dose 0.02 µM)	106%
O=C(/C=C/c1cccnc1)NCCCCC1CCN(C(=O)c2ccccc2)CC1 + Nc1nc(F)nc2c1ncn2[C@@H]1O[C@H](CO)[C@@H](O)[C@@H]1O [fludarabine] (first compound 0.01 µM, partner dose 0.2 µM)	48.8%
CC1(C)CCC(c2ccc(Cl)cc2)=C(CN2CCN(c3ccc(C(=O)NS(=O)(=O)c4ccc(N[C@H](CCN5CCOCC5)CSc5ccccc5)c(S(=O)(=O)C(F)(F)F)c4)cc3)CC2)C1 + CS(=O)(=O)CCNCc1ccc(-c2ccc3ncnc(Nc4ccc(OCc5cccc(F)c5)c(Cl)c4)c3c2)o1 [lapatinib] (first compound 0.4 µM, partner dose 0.8 µM)	50.1%
Cc1ccc(Nc2nccc(N(C)c3ccc4c(C)n(C)nc4c3)n2)cc1S(N)(=O)=O [Pazopanib] + Nc1cccc2c1CN(C1CCC(=O)NC1=O)C2=O [lenalidomide] (first compound 0.4 µM, partner dose 1 µM)	85.7%
O=C(/C=C/c1cccnc1)NCCCCC1CCN(C(=O)c2ccccc2)CC1 + CN1CCN(c2ccc3nc(-c4c(N)c5c(F)cccc5[nH]c4=O)[nH]c3c2)CC1 [Dovitinib] (first compound 0.01 µM, partner dose 0.1 µM)	66.5%
CC1(C)CCC(c2ccc(Cl)cc2)=C(CN2CCN(c3ccc(C(=O)NS(=O)(=O)c4ccc(N[C@H](CCN5CCOCC5)CSc5ccccc5)c(S(=O)(=O)C(F)(F)F)c4)cc3)CC2)C1 + Cn1nnc2c(C(N)=O)ncn2c1=O [temozolomide] (first compound 0.4 µM, partner dose 2 µM)	73.8%
O=C(/C=C/c1cccnc1)NCCCCC1CCN(C(=O)c2ccccc2)CC1 + Nc1cccc2c1CN(C1CCC(=O)NC1=O)C2=O [lenalidomide] (first compound 0.01 µM, partner dose 1 µM)	33.5%
